From the supplement of paper PMC6206098
± gives the uncertainty stated by the source. Shown are siRNA guide strands that differ only in the seed, positions 2 to 7.

Tests used:
3LL = test: cell viability relative to siNT1 control; higher = less toxic; conditions: concentration: 10 nM; 96 h; Mus musculus;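 further: Luminescence-based viability of cells reverse transfected in 384-well plates with lipid-complexed siRNAs built on a non-toxic 19mer backbone whose passenger strand carries 2′-O-methyl groups at positions 1 and 2, triplicates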
H460 = test: cell viability relative to lipid-only control; HeyA8 human ovarian and H460 human lung cancer; M565 mouse liver and 3LL mouse lung cancer; siNT1 is a non-toxic control siRNA; higher = less toxic; conditions: concentration: 10 nM; 96 h; Homo sapiens
HeyA8 = test: as above; conditions: concentration: 10 nM; 96 h; Homo sapiens
M565 = test: as above; conditions: concentration: 10 nM; 96 h; Mus musculus
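Wherever cell viability relative to lipid-only control is given: reverse lipid transfection in 384-well plates, in triplicate, of duplexes on a non-toxic 19mer backbone with passenger strand 2′-O-methylated at positions 1 and 2, luminescence viability read-out.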

Sequence	cell viability (3LL) [%]	cell viability (H460) [%]	cell viability (HeyA8) [%]	cell viability (M565) [%]
UACAAUUACAUGUAAACCAAA	86.6 ± 11	83.7 ± 6.7	68.7 ± 1.4	57.1 ± 7.9
UACGCCAACAUGUAAACCAAA	76 ± 2.4	86.9 ± 10	95.8 ± 14	71.5 ± 8.5
UGUCAUGACAUGUAAACCAAA	76.1 ± 17	29.4 ± 5	79.44 ± 0.2	49.1 ± 14
UACAUUCACAUGUAAACCAAA	94.8 ± 7.6	74.3 ± 2.6	57.6 ± 3.5	116 ± 3.5
UCUGUUGACAUGUAAACCAAA	100 ± 22	51.2 ± 3.8	83.9 ± 3.8	52.2 ± 4.5
UCUCACUACAUGUAAACCAAA	91.3 ± 20	28.9 ± 8.6	73.2 ± 1.7	65.5 ± 18
UUGACCCACAUGUAAACCAAA	15.9 ± 1.3	44.7 ± 3.7	59.1 ± 7.2	18.8 ± 1.8
UGUGUAAACAUGUAAACCAAA	92.1 ± 3.9	62.6 ± 5.8	63.8 ± 3.3	56.6 ± 7.6
UAUGACAACAUGUAAACCAAA	105 ± 12	61.8 ± 11	101 ± 4.9	87.7 ± 26
UUUAGGAACAUGUAAACCAAA	89.4 ± 3.6	71.6 ± 12	91 ± 6	79.5 ± 2.9
UUAUGCGACAUGUAAACCAAA	64.1 ± 6	58.2 ± 5.5	65.9 ± 3.4	67.9 ± 15
UUAUCCGACAUGUAAACCAAA	65.8 ± 3.5	79.3 ± 5.9	79.1 ± 5.6	70.3 ± 14
UCGCUGGACAUGUAAACCAAA	63.6 ± 16	43 ± 5	11.4 ± 0.76	54.9 ± 1.9
UCUGUACACAUGUAAACCAAA	90.4 ± 7	52.6 ± 2.9	54.3 ± 5.7	63.1 ± 13
UACGGCUACAUGUAAACCAAA	30.6 ± 9.4	52.6 ± 5.8	38.7 ± 3	42.9 ± 12
UUACAUUACAUGUAAACCAAA	102 ± 9.1	72.1 ± 13	94.3 ± 1.1	104 ± 15
UUGCGAAACAUGUAAACCAAA	105 ± 7.6	118 ± 12	95 ± 16	90.3 ± 14
UGCUAUUACAUGUAAACCAAA	79.1 ± 10	50 ± 2.2	49.9 ± 4.6	85 ± 4.4
UGCUCAGACAUGUAAACCAAA	73.5 ± 11	86.2 ± 16	66.8 ± 5.4	87.2 ± 7.2
UCCGCCCACAUGUAAACCAAA	13.3 ± 5.5	51.2 ± 5.8	23 ± 6.3	19.7 ± 0.9

Sequence	cell viability (3LL) [%]	cell viability (H460) [%]	cell viability (HeyA8) [%]	cell viability (M565) [%]
UAACUCCACAUGUAAACCAAA	63.4 ± 1.5	56.7 ± 6.1	32.9 ± 4	38.8 ± 8.3
UACUACGACAUGUAAACCAAA	92.3 ± 11	66.2 ± 16	91.1 ± 8.6	68.6 ± 12
UUCUGUUACAUGUAAACCAAA	24.4 ± 8.1	51.9 ± 7.3	71.4 ± 6	23.7 ± 5.8
UACAAGCACAUGUAAACCAAA	37.8 ± 1.2	64.7 ± 11	24.2 ± 2.7	10.1 ± 2.7
UAGUCUGACAUGUAAACCAAA	87.8 ± 3.1	72.8 ± 14	52.4 ± 0.96	21.3 ± 5.8
UAAUUGAACAUGUAAACCAAA	103 ± 3.6	84.3 ± 2.4	94.4 ± 5.2	80.9 ± 13
UCCAUCUACAUGUAAACCAAA	60.6 ± 10	40.1 ± 2	19.9 ± 1.2	20.3 ± 5.5
UGUGAAAACAUGUAAACCAAA	87.6 ± 4.5	63.1 ± 8.6	83.2 ± 4.7	71.6 ± 4.3
UACGUUCACAUGUAAACCAAA	86.8 ± 14	58.9 ± 8.8	34.4 ± 2.5	32.9 ± 2.3
UUUUAGGACAUGUAAACCAAA	88.9 ± 3.3	70.8 ± 1.4	96.5 ± 6.8	89.8 ± 4.6
UACUAUCACAUGUAAACCAAA	61.8 ± 16	67.9 ± 8.1	41.4 ± 3	51.6 ± 5.5
UGUGGGCACAUGUAAACCAAA	39.8 ± 10	16.3 ± 0.32	2.77 ± 0.34	15.5 ± 2.9
UUGCCAGACAUGUAAACCAAA	53.5 ± 5.7	37.6 ± 4.5	69.3 ± 3	51.9 ± 13
UCUACCGACAUGUAAACCAAA	102 ± 18	59 ± 5.3	91.6 ± 13	69.6 ± 7.2
UCCAGCUACAUGUAAACCAAA	34.4 ± 5.4	60.6 ± 14	65.2 ± 6.4	34.3 ± 13
UCCCCUGACAUGUAAACCAAA	110 ± 16	71 ± 5.1	81.7 ± 6.8	71.5 ± 8.5
UCUGCGAACAUGUAAACCAAA	100 ± 12	64.7 ± 2	92.7 ± 4.9	85.4 ± 18
UAUGUCGACAUGUAAACCAAA	110 ± 11	54.5 ± 0.79	92.8 ± 1.7	79.2 ± 17
UUCUAAUACAUGUAAACCAAA	99.4 ± 8.2	79.9 ± 11	95.5 ± 7.4	81 ± 16
UGCAGCGACAUGUAAACCAAA	46 ± 4	64.1 ± 4.4	61.8 ± 4.2	34.9 ± 2

Sequence	cell viability (3LL) [%]	cell viability (H460) [%]	cell viability (HeyA8) [%]	cell viability (M565) [%]
UCCCACAACAUGUAAACCAAA	109 ± 20	44.9 ± 2.7	81 ± 6.2	69.5 ± 23
UAACAACACAUGUAAACCAAA	86.7 ± 11	54.4 ± 4.5	82.3 ± 14	82.7 ± 8.8
UGGACCUACAUGUAAACCAAA	34.8 ± 2.5	50.9 ± 3.2	49.5 ± 5.8	24.9 ± 2.2
UGAUCUCACAUGUAAACCAAA	82.7 ± 9	41.8 ± 3.2	40.4 ± 3.1	29 ± 7.4
UUGCCGGACAUGUAAACCAAA	32.8 ± 4.7	36.9 ± 3.4	59.1 ± 3.8	55.3 ± 20
UGGCAUGACAUGUAAACCAAA	52.4 ± 3	36.1 ± 9	6.58 ± 1.2	21.3 ± 5.1
UGAUAGCACAUGUAAACCAAA	6.23 ± 1.3	29.24 ± 0.27	17.5 ± 2	15 ± 2.6
UUCAACAACAUGUAAACCAAA	60.6 ± 6.8	73 ± 14	75.7 ± 15	64.8 ± 13
UCUUCACACAUGUAAACCAAA	92.9 ± 13	52.3 ± 8.2	92.7 ± 6.9	61.3 ± 3.5
UUCGCGUACAUGUAAACCAAA	67.5 ± 8.2	68.6 ± 4.7	90.3 ± 7.4	73.7 ± 10
UGCGAGGACAUGUAAACCAAA	87.2 ± 9.1	58.7 ± 6.3	53.3 ± 3.8	59.4 ± 2.8
UUAAAUGACAUGUAAACCAAA	101 ± 13	67.8 ± 10	93.3 ± 6.1	85.6 ± 17
UAGCUAUACAUGUAAACCAAA	69.6 ± 13	45.4 ± 0.5	29.2 ± 5.6	69.3 ± 9.4
UUAUAACACAUGUAAACCAAA	70.4 ± 6.4	68.1 ± 12	55.4 ± 4.3	65.7 ± 11
UGCCAUAACAUGUAAACCAAA	83.9 ± 9.8	60.7 ± 8.1	85 ± 6.3	43.4 ± 6.1
UCUUUGUACAUGUAAACCAAA	75.6 ± 14	62.4 ± 4.7	60.6 ± 5.2	76.5 ± 7.5
UUUGAGCACAUGUAAACCAAA	12.5 ± 3.3	66 ± 3.3	85.9 ± 5.9	28 ± 4.5
UCGCAAGACAUGUAAACCAAA	94 ± 13	75.5 ± 4.2	83.2 ± 4.5	75.3 ± 1.5
UCCCAAUACAUGUAAACCAAA	100 ± 33	67.4 ± 11	94.8 ± 11	64.6 ± 10
UAGGAUAACAUGUAAACCAAA	84.5 ± 13	84.4 ± 13	84.3 ± 6.8	66 ± 8.8
